This is one part of the list.

T1: UNK ZnF1-3 (human, UniProt Q9C0B0 31-174)
T1 sequence: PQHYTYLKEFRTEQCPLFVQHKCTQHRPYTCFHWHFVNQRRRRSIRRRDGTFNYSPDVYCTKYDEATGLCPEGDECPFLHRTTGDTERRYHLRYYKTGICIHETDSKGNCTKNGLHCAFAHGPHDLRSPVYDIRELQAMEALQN

B1: chr19:60835742:60835743:+_ENSMUSG00000072437_ENSMUST00000088237|mus_mus|FALSE|FALSE (ssRNA)
RNA: GGGAGUUCUACAGUCCGACGAUCUUCUGAAAAGGACUUUAUAGGAAAAAUAAAGUACAAAAAAGUAAAAAGCCGAUAAAACUAGCAAGUUUGGAUAGACAAAUGCAGGCUAAAGCACAGCACAACCUGUGCCUUUCUGCCCAUCAACAGAGGAUUGAGCAUCA
B2: 198353956_198358052_1041_CDS_ENSG00000144381_ENST00000345042|human|control|control (ssRNA)
RNA: GGGAGUUCUACAGUCCGACGAUCCUCUUCUCCAAACACUGCACCACCAGUAGCAAUAGCCAUAUCUUUAAGCUGGUUCUUUCUAUUGUCACCAAACCCUGGAGCCUUGACUGCCACAACCUGAAGACCAACCUUUAGCCUAUUCAACAGAGGAUUGAGCAUCA
B3: chr5:37680062:37680063:+_ENSMUSG00000029121_ENSMUST00000031004|mus_hu|mus_mus_mus_hu_False|8_28 (ssRNA)
RNA: GGGAGUUCUACAGUCCGACGAUCUUUGGGUGUAGCUGGUACCUCGUACACAGGACCGUCAUACAUGCCCCUGGAAACCCCUUGCAAUCCAAAAACCUUAUUCCUGAUCCUGACACGCUGGUACAGGUGCUCUGGGAACGCCUUCAACAGAGGAUUGAGCAUCA
B4: chr6:71460543:71460544:+_ENSMUSG00000052656_ENSMUST00000064637|mus_hu|FALSE|FALSE (ssRNA)
RNA: GGGAGUUCUACAGUCCGACGAUCCAACCAAAUAAAUUCUGUCAUCAACAUUAGCAUAAUGUGUAUUUCCCGUCACUGCACUAACAUUAAACUAAACUUCAAACCACAAAAACAUUGUGACUAACAUUAAAAAGGCAAGCUGUACAACAGAGGAUUGAGCAUCA
B5: chr8:95500983:95500984:-_ENSG00000164944_ENST00000437199|hu_hu|hu_hu_hu_mus_True|8_28 (ssRNA)
RNA: GGGAGUUCUACAGUCCGACGAUCAGAACACAUCUAUCGAGUAAAGGACCGUACAUGACGGCCUCUACCACUGCCUCCACUAACAAACUUUCCUCUCGAGCCUCCACCUGCCGCUAUUGUACUAGCCCCAGGAAGGUCCAGGCCCAACAGAGGAUUGAGCAUCA
B6: chr17:65346418:65346419:-_ENSG00000197170_ENST00000584008|hu_mus|FALSE|FALSE (ssRNA)
RNA: GGGAGUUCUACAGUCCGACGAUCCCGCAGAGUAUCAAUCAAUCGCAGCUUGACUGGCAGGUCUGUGAUCUCCUCCACGUAAGUACAGCACUGCUGAACCAUUUUUGCAACUGCUUGUUUUAACUGACUCCGUCGUUUUGACAGCAACAGAGGAUUGAGCAUCA
B7: 55646247_55646367_442_5pUTR_ENSG00000115355_ENST00000336838|human|control|control (ssRNA)
RNA: GGGAGUUCUACAGUCCGACGAUCCCACAAAAAUACGCCUAGGGAAUUGGUCACUAAACGUGGAAGUAAGUAGAAAUCAAUGAAAGUCCAUUUCGGCAAGGGAGAAAAAUCCCAUCGUGGAGGAGGGGGGCACUCUCCCUCCUCCAACAGAGGAUUGAGCAUCA
B8: chr10:120825051:120825052:-_ENSG00000107581_ENST00000369144|hu_hu|FALSE|FALSE (ssRNA)
RNA: GGGAGUUCUACAGUCCGACGAUCAUCCAGAAGUCGAGCAAUAUCCGUACGCUCAGGAGUAAUAGGGAUGGAAAGAGUGGCUAAAAGGACUCUAGUAGACAUUCUUUGCAUCUCAUCUUGUGUGAGAUUCUUUCUCAUUUCUCUCAACAGAGGAUUGAGCAUCA
B9: chr1:156945260:156945261:-_ENSMUSG00000056708_ENSMUST00000055322|mus_mus|FALSE|FALSE (ssRNA)
RNA: GGGAGUUCUACAGUCCGACGAUCCCCCCAAGAUCGAACGGGGAACUCCCCUUCCUCGAGCCUUUCUGCAGCUUCCUUUUCUGUGCUGCUGGCAGAGGAAAGUCCCUGUCUGCACCCCCAAAGUCUCAAGCCCCGGGGAAGGGGCAACAGAGGAUUGAGCAUCA
B10: chr1:111660612:111660613:-_ENSG00000156171_ENST00000539140|hu_hu|motif|central (ssRNA)
RNA: GGGAGUUCUACAGUCCGACGAUCAAAGUAUAGGCAUAGGUGUUUUUAAUAGUCUUCUUGAUGAUAUCCUUUAGAAUAAUCGGUCAAAUGGCUUCUUUCAUGUUUCCUGAUUAUCAGCAUUCAUCAGUGUUACUGUCAGCCUUGCAACAGAGGAUUGAGCAUCA
B11: chr1:245006428:245006429:+_ENSG00000203667_ENST00000366528|hu_mus|FALSE|FALSE (ssRNA)
RNA: GGGAGUUCUACAGUCCGACGAUCAGUUGCUUAGCUGCUGUUGUUGGUCUUCAUUUUUCUUUCAGGAUCAAGGUGGGUGCUUUCAUAUAAAAUCUUAUUUUUUAUUCCUUCUCUGGCAAUUCUUUCCUGGAUCCUCUGCUUAGCCAACAGAGGAUUGAGCAUCA
B12: chr19:8913615:8913616:-_ENSMUSG00000071658_ENSMUST00000096259|mus_hu|mus_mus_mus_hu_False|68_68 (ssRNA)
RNA: GGGAGUUCUACAGUCCGACGAUCAGGGUACCAAAACCUUCUGCCUGAAAUGGGUGCCCCACCCAGUCAGGACUUGGAGCUGAAAGUAUCUGAUGCAGAAGCAGUGACUAUACGAAAGGAGGCCCCUGGGGAGGGCCAGGCCAGCAACAGAGGAUUGAGCAUCA
B13: chr3:108163977:108163978:+_ENSMUSG00000068747_ENSMUST00000102632|mus_hu|FALSE|FALSE (ssRNA)
RNA: GGGAGUUCUACAGUCCGACGAUCAUUUCUGUGCACGAGGAUAAGGAGAGUAUGACCAAAACCCUCCUCCCUAGAGGUCCAAACACAGGAGGUGGGCCAAAUCAUCAGGGAACAGUCAGUCACCCGCUUGUGGCUGAGGGCAUGCAACAGAGGAUUGAGCAUCA
B14: chr11:47650564:47650565:-_ENSG00000109919_ENST00000530428|hu_mus|motif|central (ssRNA)
RNA: GGGAGUUCUACAGUCCGACGAUCAUAGGUAUUGAUGAGAUAGGCCAGUGAGUUACACAGCCACAAAGAAAUGAUGUCACCGGGGAGGCGAGGAAUGAGACCCGCAAAAAAUCCUACGAUGCCUUCUUCCCGGUAGAUGGUUACCAACAGAGGAUUGAGCAUCA
B15: chr2:48026839:48026840:+_ENSG00000116062_ENST00000540021|hu_hu|hu_hu_hu_mus_False|48_98 (ssRNA)
RNA: GGGAGUUCUACAGUCCGACGAUCAUAGUGAGCCACUAGAGUCCUAAAUCUGGAACAGUGGCGGUCAUCCGAAAACUGGCCGAUGAAAAACUUUCCCAGUGAAGUGUCCACAAAGCAAACACCAUACACACGAGUGUGACCAGACAACAGAGGAUUGAGCAUCA
B16: chr7:141441981:141441982:+_ENSG00000106028_ENST00000265304|hu_mus|hu_hu_hu_mus_False|38_48 (ssRNA)
RNA: GGGAGUUCUACAGUCCGACGAUCCUCAUGUCUUACAAACUGACGAAAUACCUGUAACACAGGUCUUCGAAACAUGGCUUCUGUUUUCUUUUCUUACAGUCUAAUCUGCUUUUCCUAAAGGAAAGAAAGAAAAGAGAAAAAUGACAACAGAGGAUUGAGCAUCA
B17: chr10:59467614:59467615:+_ENSMUSG00000044475_ENSMUST00000050516|mus_mus|FALSE|FALSE (ssRNA)
RNA: GGGAGUUCUACAGUCCGACGAUCAUAGAAAUCCUCGUCUUCUUCAUGUUGGUACUGUUUCUCCUGGAUGGGAUUCUUUCUAUAAUUCCGUCCAUCGAACGUUACAAUCUGUGGGCGUAGAACAUCCAUGACAAAUGACGUUCCCAACAGAGGAUUGAGCAUCA
B18: chr9:124914678:124914679:-_ENSG00000119421_ENST00000373768|hu_mus|FALSE|FALSE (ssRNA)
RNA: GGGAGUUCUACAGUCCGACGAUCGGUUUUAUCGCACUGAGCCCCAUAGUGAUGGGCGGCAGCUUUAAGCACAGCUGAGCUGACUUUCACCUCCUCCACUUUCAGCUCUUCCAGAGUUGGCAGCUCCACUAUCCCCGGCAUGACCAACAGAGGAUUGAGCAUCA
B19: chr4:57889662:57889663:+_ENSG00000047315_ENST00000314595|hu_hu|motif|central (ssRNA)
RNA: GGGAGUUCUACAGUCCGACGAUCAUUGAGAGUUACCAUAACCUGAUCCACAAUGCCCGUCUCGCUAGUUCUGAGAAAAGUGCGGCAGUCUCUCUUGGUAUAGCGUCUAUUGGUGCUCUCCAAUUCAUCUUCAUUUUCAGGCAACAACAGAGGAUUGAGCAUCA
B20: chr14:90871201:90871202:+_ENSG00000198668_ENST00000553542|hu_hu|FALSE|FALSE (ssRNA)
RNA: GGGAGUUCUACAGUCCGACGAUCCCAAUACAUGCAGAUUUUGUGUGUGUGGACAGAAGGUACUUUUGACAUUCAGUUUUGCUAUAUAGAAACAGAAUGAAUAAAUGAACUUUUUUCUUUUUUCUUUUUUUUGCAAGAGGUAAGCAACAGAGGAUUGAGCAUCA
B21: 69359715_69359835_4468_3pUTR_ENSMUSG00000027784_ENSMUST00000029355|mouse|control|control (ssRNA)
RNA: GGGAGUUCUACAGUCCGACGAUCAAUCCCUGCCCCUGCCCUCUCACCCUAUCCCACCUGAGGAGGACAGAUCGCCAGGGGAGCAGCAGGGCUAGGGUUCAAGAGGGCCUGGGGCUGGCAUCAACUUAUUCCUCAAACACUGUACAACAGAGGAUUGAGCAUCA
B22: chr17:27185601:27185602:+_ENSG00000132591_ENST00000254928|hu_hu|FALSE|FALSE (ssRNA)
RNA: GGGAGUUCUACAGUCCGACGAUCGACCACACCUUCAGUGAGGGCUGCCGUGAGCUCCAGGAGAACUGACUUCUGCUUCAAACAAUCUACCUUGUUCAUGACCAGGACACUAGGGAUCUGGGAGUACUUGGUCAAGCACCUGAGCAACAGAGGAUUGAGCAUCA

In this assay the target is T1, UNK ZnF1-3. In words: nsRBNS (natural sequence RNA bind-n-seq); RBNS binding buffer (assumed for nsRBNS): 25 mM Tris pH 7.5, 150 mM KCl, 3 mM MgCl2, 0.01% Triton X-100, 500 ug/ml BSA, 20 U/ml SUPERase-In, 4 C; UNK is unkempt and MSI1 is Musashi-1; names of the RNAs are library labels; protein concentration not given here; high values mean tight binding.
As for B1, the binding signal stood at 0.799 enrichment R. For B2 the value was 1.14 enrichment R; for B3, 0.821 enrichment R.

In turn, B4 came in with a binding signal of 1.37 enrichment R. For B5 the value was 1.04 enrichment R.

Turning to B6, the binding signal worked out at 0.575 enrichment R.

For the molecule B7, the binding signal is 1.1 enrichment R.

The molecule B8 yielded a binding signal of 0.418 enrichment R. For B9 the value was 0.533 enrichment R.

With B10, the binding signal stood at 0.809 enrichment R. Turning to B11, the binding signal came out at 0.679 enrichment R. The value for B12 was 1.39 enrichment R.

Take B13: the binding signal came out at 1.18 enrichment R. B14: the binding signal turned out to be 1.26 enrichment R. For B15 the value was 1.06 enrichment R; for B16, 0.657 enrichment R. The value for B17 was 0.336 enrichment R. For B18, the binding signal came to 0.76 enrichment R. With B19, the binding signal amounted to 0.558 enrichment R. The molecule B20 gave a binding signal of 1.09 enrichment R. B21 gave a binding signal of 1.55 enrichment R. For B22 the value was 1.45 enrichment R.

The values above are taken from article PMC12136788.
